# This is one part of the list.
# How the values were obtained:
# Test in all cases: glycan array binding signal (z-score within array); higher = stronger binding
# Settings in all cases: glycan notation: IUPAC condensed, linker removed
# [1] = target: Neu5Ac(a2-6)GalNAc
# Outline: (§1)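 Columns mapping to the same glycan were averaged after glycan names were converted to IUPAC-condensed notation. The data come from 3228 arrays in the Consortium for Functional Glycomics database, limited to those with an available protein sequence. Binding is reported as a within-array Z-score averaged across arrays of one protein sequence and across linkers.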
# [2] = target: Neu5Ac(a2-6)GalNAc(b1-4)GlcNAc
# Outline: as §1
# [3] = target: Neu5Ac(a2-6)GalNAc(b1-4)GlcNAc6S
# Outline: as §1
# [4] = target: Neu5Ac(a2-6)GlcNAc(b1-4)GlcNAc
# Outline: as §1
# [5] = target: Neu5Ac(a2-6)GlcNAc(b1-4)GlcNAc(b1-4)GlcNAc
# Outline: as §1
# [6] = target: Neu5Ac(a2-8)Neu5Ac
# Outline: as §1
# [7] = target: Neu5Ac(a2-8)Neu5Ac(a2-3)Gal(b1-3)GalNAc(b1-4)[Neu5Ac(a2-3)]Gal(b1-4)Glc
# Outline: as §1
# [8] = target: Neu5Ac(a2-8)Neu5Ac(a2-3)Gal(b1-3)GalNAc(b1-4)[Neu5Ac(a2-8)Neu5Ac(a2-3)]Gal(b1-4)Glc
# Outline: as §1
# [9] = target: Neu5Ac(a2-8)Neu5Ac(a2-3)Gal(b1-4)Glc
# Outline: as §1
# [10] = target: Neu5Ac(a2-8)Neu5Ac(a2-3)Gal(b1-4)GlcNAc
# Outline: as §1
# [11] = target: Neu5Ac(a2-8)Neu5Ac(a2-3)[Gal(b1-3)GalNAc(b1-4)]Gal(b1-4)Glc
# Outline: as §1
# [12] = target: Neu5Ac(a2-8)Neu5Ac(a2-3)[GalNAc(b1-4)]Gal(b1-4)Glc
# Outline: as §1
# [13] = target: Neu5Ac(a2-8)Neu5Ac(a2-8)Neu5Ac
# Outline: as §1
# [14] = target: Neu5Ac(a2-8)Neu5Ac(a2-8)Neu5Ac(a2-3)Gal(b1-4)Glc
# Outline: as §1
# [15] = target: Neu5Ac(a2-8)Neu5Ac(a2-8)Neu5Ac(a2-3)[Gal(b1-3)GalNAc(b1-4)]Gal(b1-4)Glc
# Outline: as §1
# [16] = target: Neu5Ac(a2-8)Neu5Ac(a2-8)Neu5Ac(a2-3)[GalNAc(b1-4)]Gal(b1-4)Glc
# Outline: as §1
# [17] = target: Neu5Ac(a2-8)Neu5Ac(a2-8)Neu5Ac(a2-8)Neu5Ac(a2-3)[GalNAc(b1-4)]Gal(b1-4)Glc
# Outline: as §1
# [18] = target: Neu5Ac(a2-8)Neu5Gc(a2-3)Gal(b1-4)GlcNAc
# Outline: as §1
# [19] = target: Neu5Ac(b2-6)Gal(b1-4)GlcNAc
# Outline: as §1
# [20] = target: Neu5Ac(b2-6)GalNAc
# Outline: as §1
# [21] = target: Neu5Ac9Ac(a2-3)Gal(b1-3)GlcNAc
# Outline: as §1
# [22] = target: Neu5Ac9Ac(a2-3)Gal(b1-4)GlcNAc
# Outline: as §1
# [23] = target: Neu5Ac9Ac(a2-6)Gal(b1-4)GlcNAc
# Outline: as §1
# [24] = target: Neu5Gc(a2-3)Gal(b1-3)GlcNAc
# Outline: as §1
# [25] = target: Neu5Gc(a2-3)Gal(b1-3)[Fuc(a1-4)]GlcNAc
# Outline: as §1
# [26] = target: Neu5Gc(a2-3)Gal(b1-4)Glc
# Outline: as §1
# [27] = target: Neu5Gc(a2-3)Gal(b1-4)GlcNAc
# Outline: as §1
# [28] = target: Neu5Gc(a2-3)Gal(b1-4)GlcNAc(b1-3)Gal(b1-4)GlcNAc(b1-2)Man(a1-3)[Neu5Gc(a2-3)Gal(b1-4)GlcNAc(b1-3)Gal(b1-4)GlcNAc(b1-2)Man(a1-6)]Man(b1-4)GlcNAc(b1-4)GlcNAc
# Outline: as §1
# [29] = target: Neu5Gc(a2-3)Gal(b1-4)[Fuc(a1-3)]GlcNAc
# Outline: as §1
# [30] = target: Neu5Gc(a2-6)Gal(b1-4)GlcNAc
# Outline: as §1
# [31] = target: Neu5Gc(a2-6)GalNAc
# Outline: as §1
# [32] = target: Neu5Gc(a2-8)Neu5Ac(a2-3)Gal(b1-4)GlcNAc
# Outline: as §1
# [33] = target: Neu5Gc(a2-8)Neu5Gc(a2-3)Gal(b1-4)GlcNAc
# Outline: as §1
# [34] = target: Neu5Gc(a2-8)Neu5Gc(a2-3)Gal(b1-4)GlcNAc(b1-3)Gal(b1-4)GlcNAc
# Outline: as §1
# [35] = target: Neu5Gc(a2-8)Neu5Gc(a2-6)Gal(b1-4)GlcNAc
# Outline: as §1
# [36] = target: Neu5Gc(b2-6)Gal(b1-4)GlcNAc
# Outline: as §1
binder,measurement,setting,value
"Gal 1 (Mus musculus), P16045 (protein) MACGLVASNLNLKPGECLKVRGEVASDAKSFVLNLGKDSNNLCLHFNPRFNAHGDANTIVCNTKEDGTWGTEHREPAFPFQPGSITEVCITFDQADLTIKLPDGHEFKFPNRLNMEAINYMAADGDFKIKCVAFE",glycan array binding signal (z-score),[1],-0.461
same,glycan array binding signal (z-score),[2],-0.251
same,glycan array binding signal (z-score),[3],-0.3
same,glycan array binding signal (z-score),[4],-0.34
same,glycan array binding signal (z-score),[5],-0.381
same,glycan array binding signal (z-score),[6],-0.093
same,glycan array binding signal (z-score),[7],0.151
same,glycan array binding signal (z-score),[8],-0.143
same,glycan array binding signal (z-score),[9],-0.165
same,glycan array binding signal (z-score),[10],-0.102
same,glycan array binding signal (z-score),[11],-0.36
same,glycan array binding signal (z-score),[12],-0.285
same,glycan array binding signal (z-score),[13],-0.343
same,glycan array binding signal (z-score),[14],-0.347
same,glycan array binding signal (z-score),[15],-0.333
same,glycan array binding signal (z-score),[16],-0.144
same,glycan array binding signal (z-score),[17],-0.422
same,glycan array binding signal (z-score),[18],-0.094
same,glycan array binding signal (z-score),[19],-0.319
same,glycan array binding signal (z-score),[20],-0.21
same,glycan array binding signal (z-score),[21],-0.121
same,glycan array binding signal (z-score),[22],-0.091
same,glycan array binding signal (z-score),[23],-0.419
same,glycan array binding signal (z-score),[24],-0.106
same,glycan array binding signal (z-score),[25],-0.379
same,glycan array binding signal (z-score),[26],-0.248
same,glycan array binding signal (z-score),[27],-0.242
same,glycan array binding signal (z-score),[28],1.49
same,glycan array binding signal (z-score),[29],-0.407
same,glycan array binding signal (z-score),[30],-0.4
same,glycan array binding signal (z-score),[31],-0.293
same,glycan array binding signal (z-score),[32],-0.226
same,glycan array binding signal (z-score),[33],-0.193
same,glycan array binding signal (z-score),[34],0.426
same,glycan array binding signal (z-score),[35],-0.465
same,glycan array binding signal (z-score),[36],-0.306
